The supplement of paper PMC4967469

Assays:
Test in all cases: Viability of human cancer cell lines after 72 h of drug (GDSC screen)
UNC1215 = compound: O=C(c1ccc(C(=O)N2CCC(N3CCCC3)CC2)c(Nc2ccccc2)c1)N1CCC(N2CCCC2)CC1 [UNC1215]; settings: top dose 1 µM; top dose inferred
Description: (§1)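 Human cancer cell lines in 384-well plates, medium with 10% serum, drug for 72 h over a 256-fold dose range (nine 2-fold or five 4-fold steps up to the top dose). Adherent lines were fixed and stained with the nucleic acid dye Syto60, suspension lines read with resazurin; signal relative to control wells, capped at 0 and 100%. One two-parameter sigmoid per drug and line, fitted in a mixed model over all curves with the slope shared within a line.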

BIX02189 = compound: CN(C)Cc1cccc(N=C(c2ccccc2)c2c(O)[nH]c3cc(C(=O)N(C)C)ccc23)c1 [BIX02189]; settings: top dose 20 µM; top dose inferred
Description: as §1

Dimethyloxalylglycine = compound: COC(=O)CNC(=O)C(=O)OC [Dimethyloxalylglycine]; settings: top dose 4000 µM; top dose inferred
Description: as §1

OSI-027 = compound: COc1cccc2cc(-c3nc([C@H]4CC[C@H](C(=O)O)CC4)n4ncnc(N)c34)[nH]c12 [OSI-027]; settings: top dose 20 µM
Description: as §1

VX-11e = compound: Cc1cnc(Nc2ccc(F)cc2Cl)nc1-c1c[nH]c(C(=O)N[C@H](CO)c2cccc(Cl)c2)c1 [VX-11e]; settings: top dose 5.12 µM; top dose inferred
Description: as §1

Doxorubicin = compound: COc1cccc2c1C(=O)c1c(O)c3c(c(O)c1C2=O)C[C@@](O)(C(=O)CO)C[C@@H]3O[C@H]1C[C@H](N)[C@H](O)[C@H](C)O1 [Doxorubicin]; settings: top dose 1.024 µM
Description: as §1

TG101348 = compound: Cc1cnc(Nc2ccc(OCCN3CCCC3)cc2)nc1Nc1cccc(S(=O)(=O)NC(C)(C)C)c1 [TG101348]; settings: top dose 10.24 µM
Description: as §1

CCT018159 = compound: CCc1cc(-c2n[nH]c(C)c2-c2ccc3c(c2)OCCO3)c(O)cc1O [CCT018159]; settings: top dose 10 µM; top dose inferred
Description: as §1

17-AAG = compound: C=CCNC1=C2C[C@@H](C)C[C@H](OC)[C@H](O)[C@@H](C)/C=C(\C)[C@H](OC(N)=O)[C@@H](OC)/C=C\C=C(/C)C(=O)NC(=CC1=O)C2=O [17-AAG]; settings: top dose 1 µM
Description: as §1

Vismodegib = compound: CS(=O)(=O)c1ccc(C(=O)Nc2ccc(Cl)c(-c3ccccn3)c2)c(Cl)c1 [Vismodegib]; settings: top dose 10 µM; top dose inferred
Description: as §1

Cell Line	AUC (UNC1215)	IC50 (UNC1215) [µM]	AUC (BIX02189)	IC50 (BIX02189) [µM]	AUC (Dimethyloxalylglycine)	IC50 (Dimethyloxalylglycine) [µM]	AUC (OSI-027)	IC50 (OSI-027) [µM]	AUC (VX-11e)	IC50 (VX-11e) [µM]	AUC (Doxorubicin)	IC50 (Doxorubicin) [µM]	AUC (TG101348)	IC50 (TG101348) [µM]	AUC (CCT018159)	IC50 (CCT018159) [µM]	AUC (17-AAG)	IC50 (17-AAG) [µM]	AUC (Vismodegib)	IC50 (Vismodegib) [µM]
769-P (kidney, adherent)	0.98	> 1	0.94	> 20	0.933	> 4000	0.455	0.933	0.823	3.38	0.339	0.0218	0.751	3.64	–	–	–	–	–	–
A204 (rhabdomyosarcoma, adherent)	0.974	> 1	0.853	> 20	0.565	–	0.435	0.79	0.959	> 5.12	0.285	0.013	0.804	6.99	0.93	> 10	–	–	–	–
BC-3 (B-cell lymphoma, suspension)	–	–	0.921	> 20	0.512	269	0.299	0.364	0.9	> 5.12	0.664	0.173	0.708	2.29	–	–	–	–	–	–
BICR31 (head and neck, adherent)	–	–	0.976	> 20	0.29	63.2	0.814	11.1	0.979	> 5.12	0.458	0.049	0.871	9.85	–	–	–	–	–	–
COLO-792 (melanoma, adherent)	0.987	> 1	0.987	> 20	0.884	> 4000	0.312	0.376	0.985	> 5.12	0.899	> 1.02	0.828	6.15	0.972	> 10	–	–	–	–
COR-L105 (lung adenocarcinoma, adherent)	0.973	> 1	0.771	9.42	0.269	46.8	0.286	0.267	0.805	3.29	0.621	0.149	0.794	5.91	0.919	> 10	–	–	–	–
Caov-3 (ovary, adherent)	–	–	0.974	> 20	0.675	719	0.67	3.47	0.969	> 5.12	0.8	0.427	0.903	> 10.2	–	–	–	–	–	–
Daoy (medulloblastoma, adherent)	0.986	> 1	0.963	> 20	0.506	260	0.216	0.203	0.97	> 5.12	0.231	0.0116	0.943	> 10.2	0.832	5.57	–	–	–	–
H2818 (mesothelioma, adherent)	0.988	> 1	0.985	> 20	0.676	785	0.962	> 20	0.989	> 5.12	0.859	0.89	0.899	> 10.2	0.968	> 10	–	–	–	–
HCC1599 (breast, suspension)	–	–	0.904	> 20	0.393	122	0.362	0.489	0.949	> 5.12	0.506	0.0666	0.78	4.84	–	–	–	–	–	–
HCC-33 (small cell lung carcinoma, adherent)	–	–	0.962	> 20	0.536	314	0.682	4.06	0.984	> 5.12	0.93	> 1.02	0.695	2.27	–	–	–	–	–	–
HCE-4 (oesophagus, adherent)	–	–	0.992	> 20	0.641	576	0.992	> 20	0.992	> 5.12	0.309	0.0204	0.99	> 10.2	0.991	> 10	–	–	–	–
HEL (acute myeloid leukaemia, semi-adherent)	0.99	> 1	0.886	15.7	0.482	226	0.334	0.471	0.958	> 5.12	0.673	0.177	–	–	0.919	> 10	–	–	–	–
HO-1-N-1 (head and neck, adherent)	0.987	> 1	0.98	> 20	0.715	953	0.888	19.4	0.977	> 5.12	0.668	0.179	0.965	> 10.2	0.897	> 10	–	–	–	–
HPAC (pancreas, adherent)	–	–	0.906	> 20	0.416	134	0.571	2.11	0.587	0.612	0.501	0.0644	0.849	> 10.2	0.947	> 10	–	–	–	–
KP-N-YS (neuroblastoma, adherent)	–	–	0.866	> 20	0.743	1400	0.23	0.179	0.972	> 5.12	0.691	0.239	0.605	1.3	–	–	–	–	–	–
KYSE-180 (oesophagus, adherent)	0.982	> 1	0.93	> 20	0.886	> 4000	0.846	13.7	0.945	> 5.12	0.504	0.0657	0.884	> 10.2	–	–	–	–	–	–
NCI-H748 (small cell lung carcinoma, suspension)	–	–	0.905	> 20	0.513	274	0.191	0.111	0.948	> 5.12	0.669	0.216	0.667	2.13	–	–	–	–	–	–

Cell Line	AUC (UNC1215)	IC50 (UNC1215) [µM]	AUC (BIX02189)	IC50 (BIX02189) [µM]	AUC (Dimethyloxalylglycine)	IC50 (Dimethyloxalylglycine) [µM]	AUC (OSI-027)	IC50 (OSI-027) [µM]	AUC (VX-11e)	IC50 (VX-11e) [µM]	AUC (Doxorubicin)	IC50 (Doxorubicin) [µM]	AUC (TG101348)	IC50 (TG101348) [µM]	AUC (CCT018159)	IC50 (CCT018159) [µM]	AUC (17-AAG)	IC50 (17-AAG) [µM]	AUC (Vismodegib)	IC50 (Vismodegib) [µM]
NCI-H2171 (small cell lung carcinoma, suspension)	–	–	0.991	> 20	0.841	2250	0.561	1.79	0.992	> 5.12	0.747	0.29	0.8	4.21	–	–	–	–	–	–
NCI-H2196 (small cell lung carcinoma, adherent)	–	–	0.967	> 20	0.799	2040	0.32	0.381	0.978	> 5.12	0.713	0.266	0.894	> 10.2	–	–	–	–	–	–
NCI-H2228 (lung adenocarcinoma, adherent)	–	–	0.926	> 20	0.313	56.9	0.689	5.61	0.961	> 5.12	0.274	0.0103	0.887	> 10.2	–	–	–	–	–	–
NK-92MI (lymphoid neoplasm, suspension)	–	–	–	–	0.358	104	–	–	–	–	0.772	0.369	–	–	–	–	–	–	–	–
SCC-3 (B-cell lymphoma, suspension)	–	–	0.992	> 20	0.825	1580	0.452	0.959	0.984	> 5.12	0.54	0.0799	0.78	3.09	–	–	–	–	–	–
SF539 (glioma, adherent)	0.972	> 1	0.952	> 20	0.543	324	0.472	1.05	0.948	> 5.12	–	–	0.845	6.31	0.897	> 10	0.454	0.0475	0.971	> 10
SIG-M5 (acute myeloid leukaemia, suspension)	–	–	0.509	1.32	0.254	61.9	0.024	< 0.0781	0.17	0.0471	0.351	0.0277	0.394	0.352	–	–	–	–	–	–
SNU-475 (liver, adherent)	–	–	0.953	> 20	0.804	1740	0.889	18.1	0.99	> 5.12	0.929	> 1.02	0.869	7.67	–	–	–	–	–	–
SU-DHL-1 (anaplastic large cell lymphoma, suspension)	–	–	0.997	> 20	0.609	457	0.161	0.183	0.997	> 5.12	0.566	0.0923	0.874	5.49	–	–	–	–	–	–
SUP-M2 (anaplastic large cell lymphoma, suspension)	0.994	> 1	0.994	> 20	0.655	599	0.029	< 0.0781	0.968	> 5.12	–	–	0.626	1.3	0.847	4.88	0.816	0.396	0.96	> 10
T47D (breast, adherent)	0.97	> 1	0.893	> 20	0.915	> 4000	0.217	0.114	0.947	> 5.12	–	–	0.824	> 10.2	0.909	> 10	0.954	> 1	0.973	> 10
T98G (glioma, adherent)	0.966	> 1	0.956	> 20	0.641	593	0.805	9.21	0.986	> 5.12	–	–	0.891	> 10.2	0.888	9.8	0.468	0.0516	0.987	> 10
TALL-1 (T-cell lymphoblastic leukaemia, suspension)	–	–	0.972	> 20	0.91	> 4000	0.865	16.3	0.941	> 5.12	0.965	> 1.02	0.913	> 10.2	–	–	–	–	–	–
TE-441-T (rhabdomyosarcoma, adherent)	–	–	0.946	> 20	0.791	1720	0.677	3.83	0.963	> 5.12	0.557	0.0907	0.91	> 10.2	–	–	–	–	–	–
U-87-MG (glioma, adherent)	0.983	> 1	0.97	> 20	0.469	202	0.433	0.791	0.983	> 5.12	–	–	0.944	> 10.2	0.955	> 10	0.569	0.0995	0.983	> 10
UACC-257 (melanoma, adherent)	0.979	> 1	0.904	> 20	0.694	1010	0.479	1.08	0.766	2.35	–	–	0.914	> 10.2	0.972	> 10	0.796	0.606	0.982	> 10
UACC-812 (breast, adherent)	–	–	0.99	> 20	0.844	2710	0.93	> 20	0.99	> 5.12	0.959	> 1.02	0.948	> 10.2	–	–	–	–	–	–

The IC50 comes from the fitted curve, where viability falls to half of the control; a limit (>, <) means that the fit lies beyond the doses tested. For AUC the same curve is integrated over the 256-fold range of doses and scaled to a fraction; it is 1 without any effect and falls as sensitivity rises. For some of these results: An inferred top dose was calculated from the reported fits.
